# Experimental data reported in publication PMC9911399, “Two distinct binding modes provide the RNA-binding protein RbFox with extraordinary sequence specificity”.
# Substitutions are numbered along the chain they refer to; changes in the protein carry UniProt numbers. Some of the results follow.
# T1: RBFOX1 RRM RbFoxmut (Fox-RRM*) (Homo sapiens, UniProt Q9NWB1 109-208, R118D;E147R;N151S;E152T)
# T1 sequence: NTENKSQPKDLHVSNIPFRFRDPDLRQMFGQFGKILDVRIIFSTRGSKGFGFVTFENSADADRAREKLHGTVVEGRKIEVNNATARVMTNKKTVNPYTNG
# B1: AAGUCAU (DNA:RNA)
# RNA: GGGAGACCGGAAUUCAGAUUGUCCAAGUCAUUUAAAUCCCGUCGUAGCCACCA
# DNA 1: CAATCTGAATTCCGGTCTCCC
# DNA 2: TGGTGGCTACGACGGGATT
# B2: UGACGUC (DNA:RNA)
# RNA: GGGAGACCGGAAUUCAGAUUGUCCUGACGUCUUAAAUCCCGUCGUAGCCACCA
# DNA 1: CAATCTGAATTCCGGTCTCCC
# DNA 2: TGGTGGCTACGACGGGATT
# B3: UUCGAUU (DNA:RNA)
# RNA: B2 RNA with G26U, A27C, C28G, G29A, C31U
# DNA 1: CAATCTGAATTCCGGTCTCCC
# DNA 2: TGGTGGCTACGACGGGATT
# B4: AGGGCGG (DNA:RNA)
# RNA: B1 RNA with A26G, U28G, A30G, U31G
# DNA 1: CAATCTGAATTCCGGTCTCCC
# DNA 2: TGGTGGCTACGACGGGATT
# B5: AAUAAUA (DNA:RNA)
# RNA: B1 RNA with G27U, U28A, C29A, A30U, U31A
# DNA 1: CAATCTGAATTCCGGTCTCCC
# DNA 2: TGGTGGCTACGACGGGATT
# B6: AGAAUAU (DNA:RNA)
# RNA: B1 RNA with A26G, G27A, U28A, C29U
# DNA 1: CAATCTGAATTCCGGTCTCCC
# DNA 2: TGGTGGCTACGACGGGATT
# B7: GGAGCUG (DNA:RNA)
# RNA: B2 RNA with U25G, C28G, G29C, C31G
# DNA 1: CAATCTGAATTCCGGTCTCCC
# DNA 2: TGGTGGCTACGACGGGATT
# B8: ACGGUAA (DNA:RNA)
# RNA: B1 RNA with A26C, U28G, C29U, U31A
# DNA 1: CAATCTGAATTCCGGTCTCCC
# DNA 2: TGGTGGCTACGACGGGATT
# B9: AGAUUUC (DNA:RNA)
# RNA: B2 RNA with U25A, C28U, G29U
# DNA 1: CAATCTGAATTCCGGTCTCCC
# DNA 2: TGGTGGCTACGACGGGATT
# B10: CUGAAAU (DNA:RNA)
# RNA: B1 RNA with A25C, A26U, U28A, C29A
# DNA 1: CAATCTGAATTCCGGTCTCCC
# DNA 2: TGGTGGCTACGACGGGATT
# B11: GGUAACC (DNA:RNA)
# RNA: B2 RNA with U25G, A27U, C28A, G29A, U30C
# DNA 1: CAATCTGAATTCCGGTCTCCC
# DNA 2: TGGTGGCTACGACGGGATT
# B12: UUUUAAA (DNA:RNA)
# RNA: B1 RNA with A25U, A26U, G27U, C29A, U31A
# DNA 1: CAATCTGAATTCCGGTCTCCC
# DNA 2: TGGTGGCTACGACGGGATT
# B13: AAGCUUC (DNA:RNA)
# RNA: B1 RNA with U28C, C29U, A30U, U31C
# DNA 1: CAATCTGAATTCCGGTCTCCC
# DNA 2: TGGTGGCTACGACGGGATT
# B14: GUACAUA (DNA:RNA)
# RNA: B2 RNA with U25G, G26U, G29A, C31A
# DNA 1: CAATCTGAATTCCGGTCTCCC
# DNA 2: TGGTGGCTACGACGGGATT
# B15: AGUCGUA (DNA:RNA)
# RNA: B2 RNA with U25A, A27U, C31A
# DNA 1: CAATCTGAATTCCGGTCTCCC
# DNA 2: TGGTGGCTACGACGGGATT
# B16: GCACUCA (DNA:RNA)
# RNA: B2 RNA with U25G, G26C, G29U, U30C, C31A
# DNA 1: CAATCTGAATTCCGGTCTCCC
# DNA 2: TGGTGGCTACGACGGGATT
# B17: ACCCACG (DNA:RNA)
# RNA: B1 RNA with A26C, G27C, U28C, C29A, A30C, U31G
# DNA 1: CAATCTGAATTCCGGTCTCCC
# DNA 2: TGGTGGCTACGACGGGATT
# B18: GUUAGGA (DNA:RNA)
# RNA: B2 RNA with U25G, G26U, A27U, C28A, U30G, C31A
# DNA 1: CAATCTGAATTCCGGTCTCCC
# DNA 2: TGGTGGCTACGACGGGATT
# B19: AUGCCGU (DNA:RNA)
# RNA: B1 RNA with A26U, U28C, A30G
# DNA 1: CAATCTGAATTCCGGTCTCCC
# DNA 2: TGGTGGCTACGACGGGATT
# B20: UGCUUGA (DNA:RNA)
# RNA: B2 RNA with A27C, C28U, G29U, U30G, C31A
# DNA 1: CAATCTGAATTCCGGTCTCCC
# DNA 2: TGGTGGCTACGACGGGATT
# Target: T1, RBFOX1 RRM RbFoxmut (Fox-RRM*)
# Test: EMSA; HiTS-Eq, 1 nM pool, 10 min; buffer printed only for the single-RNA assays: 10 mM Tris pH 7.5, 150 mM NaCl, 3.4 mM EDTA, 0.001% NP-40, 30 C
# Details: tags: His6 N-terminal (pET28a); label: 5' 32P
# Summary of the method: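 Purified RbFox RRM (wild type or mutant) was equilibrated for 10 min in 50 µL with 1 nM of a 5′-radiolabelled pool of RNA with 7 randomized nucleotides, its flanks annealed to DNA oligonucleotides, across increasing protein concentrations. Free RNA was separated by 8% native PAGE, excised, reverse-transcribed, PCR-barcoded and sequenced on an Illumina HiSeq 2500. Relative association constants came from read-count changes of each variant against the control reaction, normalised to the cognate motif.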
row,Binder,binding signal
1,B1,0.0856 KA relative to UGCAUGU
2,B2,0.0923 KA relative to UGCAUGU
3,B3,0.0793 KA relative to UGCAUGU
4,B4,0.117 KA relative to UGCAUGU
5,B5,0.0507 KA relative to UGCAUGU
6,B6,0.119 KA relative to UGCAUGU
7,B7,0.13 KA relative to UGCAUGU
8,B8,0.115 KA relative to UGCAUGU
9,B9,0.0772 KA relative to UGCAUGU
10,B10,0.0434 KA relative to UGCAUGU
11,B11,0.0646 KA relative to UGCAUGU
12,B12,0.117 KA relative to UGCAUGU
13,B13,0.0663 KA relative to UGCAUGU
14,B14,0.112 KA relative to UGCAUGU
15,B15,0.0993 KA relative to UGCAUGU
16,B16,0.0691 KA relative to UGCAUGU
17,B17,0.124 KA relative to UGCAUGU
18,B18,0.0568 KA relative to UGCAUGU
19,B19,0.131 KA relative to UGCAUGU
20,B20,0.308 KA relative to UGCAUGU
